The supplement of paper PMC12217912
The list shows a part of the results. The full chains were built here from the parent and the listed change. Values near 0.05 are background.

B1: TEV protease; numbered along this chain (parent)
chain: MGESLFKGPRDYNPISSSICHLTNESDGHTTSLYGIGFGPFIITNKHLFRRNNGTLVVQSLHGVFKVKDTTTLQQHLVDGRDMIIIRMPKDFPPFPQKLKFREPQREERICLVTTNFQTKSMSSMVSDTSCTFPSGDGIFWKHWIQTKDGQCGSPLVSTRDGFIVGIHSASNFTNTNNYFTSVPKNFMELLTNQEAQQWVSGWRLNADSVLWGGHKVFMVKPEEPFQPVKEATQL

Variants of: B1
Experiment: raw area under fraction-flipped curve 0-4 h after induction (AUC4h, not background-subtracted), DNA-recorder readout of cleavage of the substrate (dimensionless); higher = more cleavage of the substrate by the protease variant
Conditions: temperature: 34 °C; time window: 0-4 h after rhamnose induction
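Note: Bxb1 expression induced with 0.2% (w/v) L-rhamnose at OD600 near 0.5, cultures sampled hourly, flipped fraction per protease–substrate barcode pair counted by paired-end Illumina sequencing.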

| Variant | area with substrate GNLYFQS | area with substrate YNLYFQS | area with substrate LNLYFQS | area with substrate MNLYFQS | area with substrate PNLYFQS | area with substrate KNLYFQS | area with substrate SNLYFQS | area with substrate WNLYFQS | area with substrate HNLYFQS | area with substrate INLYFQS |
| --- | --- | --- | --- | --- | --- | --- | --- | --- | --- | --- |
| MGESLFKGPRDYNPISSSICHLTNESDGHTTSLYGIGFGPFIITNKHLFRRNNGTLVVQSLHGVFKVKDTTTLQQHLVDGRDMIIIRMPKDFPPFPQKLKFREPQREERICLVTTNFQTKSMSSMVSDTSCTFPSGDGIFWKHWIQTKDGQCGSPLVSTRDGFIVGIHSASNFTNTNNYFTSVPKNFMELLTNQEAQQWVSGWRLNADSVLWGGHMVFMVKPEEPFQPVKEATQL [K216M] | 0.0744 | 0.0916 | – | – | – | – | – | – | – | – |
| MGESLFKGPRDYNPISSSICHLTNESDGHTTSLYGIGFGPFIITNKHLFRRNNGTLVVQSLHGVFKVKDTTTLQQHLVDGRDMIIIRMPKDFPPFPQKLKFREPQREERICLVTTNFQTKSMSSMVSDTSCTFPSGDGIFWKHWIQTKDGQCGSPLVSTRDGFIVGIHSASNFTNTNNYFTSVPKNFMELLTNQEAQQWVSGWRLNADSVLWGGHCVFMVKPEEPFQPVKEATQL [K216C] | – | – | 0.0567 | 0.0484 | 0.0619 | – | – | – | – | – |
| MGESLFKGPRDYNPISSSICHLTNESDGHTTSLYGIGFGPFIITNKHLFRRNNGTLVVQSLHGVFKVKDTTTLQQHLVDGRDMIIIRMPKDFPPFPQKLKFREPQREERICLVTTNFQTKSMSSMVSDTSCTFPSGDGIFWKHWIQTKDGQCGSPLVSTRDGFIVGIHSASNFTNTNNYFTSVPKNFMELLTNQEAQQWVSGWRLNADSVLWGGHPVFMVKPEEPFQPVKEATQL [K216P] | – | 0.0596 | – | 0.0663 | – | 0.0642 | 0.0567 | 0.0803 | – | – |
| MGESLFKGPRDYNPISSSICHLTNESDGHTTSLYGIGFGPFIITNKHLFRRNNGTLVVQSLHGVFKVKDTTTLQQHLVDGRDMIIIRMPKDFPPFPQKLKFREPQREERICLVTTNFQTASMSSMVSDTSCTFPSGDGIFWKHWIQTKDGQCGSPLVSTRDGFIVGIHSASNFTNTNNYFTSVPKNFMELLTNQEAQQWVSGWRLNADSVLWGGHKVFMVKPEEPFQPVKEATQL [K120A] | 0.0539 | 0.066 | 0.0735 | 0.0588 | 0.0395 | 0.0766 | – | 0.0548 | 0.0549 | 0.0455 |
| MGESLFKGPRDYNPISSSICHLTNESDGHTTSLYGIGFGPFIITNKHLFRRNNGTLVVQSLHGVFKVKDTTTLQQHLVDGRDMIIIRMPKDFPPFPQKLKFREPQREERICLVTTNFQTKSMSSMVSDTSCTFPSGDGIFWKHWIQTKDGQCGSPLVSTMDGFIVGIHSASNFTNTNNYFTSVPKNFMELLTNQEAQQWVSGWRLNADSVLWGGHKVFMVKPEEPFQPVKEATQL [R160M] | – | – | 0.0802 | – | – | – | – | – | – | – |
| MGESLFKGPRDYNPISSSICHLTNESDGHTTSLYGIGFGPFIITNKHLFRRNNGTLVVQSLHGVFKVKDTTTLQQHLVDGRDMIIIRMPKDFPPFPQKLKFREPQREERICLVTTNFQTKSMSSMVSGTSCTFPSGDGIFWKHWIQTKDGQCGSPLVSTRDGFIVGIHSASNFTNTNNYFTSVPKNFMELLTNQEAQQWVSGWRLNADSVLWGGHKVFMVKPEEPFQPVKEATQL [D128G] | – | 0.083 | – | – | – | – | – | – | – | – |
| MGESLFKGPRDYNPISSSICHLTNESDGHTTSLYGIGFGPFIITNKHLFRRNNGTLVVQSLHGVFKVKDTTTLQQHLVDGRDMIIIRMPKDFPPFPQKLKFREPQREERICLVTTNFQTKSMSSMVSDTSCTFPSGDGIFWKHWIQTKDGQCGSPLVSTRDGFIVGIHSASNFTNTNNYFTSVPKNFMELLTNQEAQQWKSGWRLNADSVLWGGHKVFMVKPEEPFQPVKEATQL [V200K] | – | – | – | – | – | – | 0.0743 | – | 0.0388 | – |
| MGESLFKGPRDYNPISSSICHLTNESDGHTTSLYGIGFGPFIITNKHLFRRNNGTLVVQSLHGVFKVKDTTTLQQHLVDGRDMIIIRMPKDFPPFPQKLKFREPQREERICLVTTNFQTKSMSSMVSDTSCTFPSGDGIFWKHWIQTKDGQCGSPLVSTRDGFIVGIHSASNFTNTNNYFTSVPKNFMELLTNQEAQQWQSGWRLNADSVLWGGHKVFMVKPEEPFQPVKEATQL [V200Q] | – | – | – | – | – | – | – | – | 0.0502 | – |
| MGESLFKGPRDYNPISSSICHLTNESDGHTTSLYGIGFGPFIITNKHLFRRNNGTLVVQSLHGVFKVKDTTTLQQHLVDGRDMIIIRMPKDFPPFPQKLKFREPQREERICLVTTNFQTKSMSSMVSDTSCTFPSGDGIFWKHWIQTKDGQCGSPLVSTRDGFIVGIHSASNFTNTNNYFTSVPKNFMELLTNQEAQQWGSGWRLNADSVLWGGHKVFMVKPEEPFQPVKEATQL [V200G] | – | 0.123 | 0.0618 | 0.062 | – | – | – | 0.0571 | 0.0615 | 0.0511 |
| MGESLFKGPRDYNPISSSICHLTNESDGHTTSLYGIGFGPFIITNKHLFRRNNGTLVVQSLHGVFKVKDTTTLQQHLVDGRDMIIIRMPKDFPPFPQKLKFREPQREERICLVTTNFQTKSMSSMVSDTSCTFPSGDGIFWKHWIQTKDGQHGSPLVSTRDGFIVGIHSASNFTNTNNYFTSVPKNFMELLTNQEAQQWVSGWRLNADSVLWGGHKVFMVKPEEPFQPVKEATQL [C152H] | – | – | – | 0.0453 | 0.0615 | 0.0599 | – | – | – | – |
| MGESLFKGPRDYNPISSSICHLTNESDGHTTSLYGIGFGPFIITNKHLFRRNNGTLVVQSLHGGFKVKDTTTLQQHLVDGRDMIIIRMPKDFPPFPQKLKFREPQREERICLVTTNFQTKSMSSMVSDTSCTFPSGDGIFWKHWIQTKDGQCGSPLVSTRDGFIVGIHSASNFTNTNNYFTSVPKNFMELLTNQEAQQWVSGWRLNADSVLWGGHKVFMVKPEEPFQPVKEATQL [V64G] | – | – | 0.0722 | – | – | – | – | – | – | – |
| MGESLFKNPRDYNPISSSICHLTNESDGHTTSLYGIGFGPFIITNKHLFRRNNGTLVVQSLHGVFKVKDTTTLQQHLVDGRDMIIIRMPKDFPPFPQKLKFREPQREERICLVTTNFQTKSMSSMVSDTSCTFPSGDGIFWKHWIQTKDGQCGSPLVSTRDGFIVGIHSASNFTNTNNYFTSVPKNFMELLTNQEAQQWVSGWRLNADSVLWGGHKVFMVKPEEPFQPVKEATQL [G8N] | – | – | – | – | 0.0739 | – | 0.105 | 0.0565 | – | – |
| MGESLFKMPRDYNPISSSICHLTNESDGHTTSLYGIGFGPFIITNKHLFRRNNGTLVVQSLHGVFKVKDTTTLQQHLVDGRDMIIIRMPKDFPPFPQKLKFREPQREERICLVTTNFQTKSMSSMVSDTSCTFPSGDGIFWKHWIQTKDGQCGSPLVSTRDGFIVGIHSASNFTNTNNYFTSVPKNFMELLTNQEAQQWVSGWRLNADSVLWGGHKVFMVKPEEPFQPVKEATQL [G8M] | – | 0.067 | – | – | – | – | 0.0627 | – | – | 0.0537 |

Same assay, conditions: temperature: 34 °C; time window: 0-4 h after rhamnose induction

| Variant | area with substrate RNLYFQS | area with substrate TNLYFQS | area with substrate NNLYFQS | area with substrate VNLYFQS |
| --- | --- | --- | --- | --- |
| MGESLFKGPRDYNPISSSICHLTNESDGHTTSLYGIGFGPFIITNKHLFRRNNGTLVVQSLHGVFKVKDTTTLQQHLVDGRDMIIIRMPKDFPPFPQKLKFREPQREERICLVTTNFQTASMSSMVSDTSCTFPSGDGIFWKHWIQTKDGQCGSPLVSTRDGFIVGIHSASNFTNTNNYFTSVPKNFMELLTNQEAQQWVSGWRLNADSVLWGGHKVFMVKPEEPFQPVKEATQL [K120A] | 0.0598 | – | – | – |
| MGESLFKGPRDYNPISSSICHLTNESDGHTTSLYGIGFGPFIITNKHLFRRNNGTLVVQSLHGVFKVKDTTTLQQHLVDGRDMIIIRMPKDFPPFPQKLKFREPQREERICLVTTNFQTKSMSSMVSDTSCTFPSGDGIFWKHWIQTKDGQCGSPLVSTRDGFIVGIHSASNFTNTNNYFTSVPKNFMELLTNQEAQQWGSGWRLNADSVLWGGHKVFMVKPEEPFQPVKEATQL [V200G] | – | 0.068 | – | – |
| MGESLFKGPRDYNPISSSICHLTNESDGHTTSLYGIGFGPFIITNKHLFRRNNGTLVVQSLHGVFKVKDTTTLQQHLVDGRDMIIIRMPKDFPPFPQKLKFREPQREERICLVTTNFQTKSMSSMVSDTSCTFPSGDGIFWKHWIQTKDGQHGSPLVSTRDGFIVGIHSASNFTNTNNYFTSVPKNFMELLTNQEAQQWVSGWRLNADSVLWGGHKVFMVKPEEPFQPVKEATQL [C152H] | – | – | 0.0597 | – |
| MGESLFKGPRDYNPISSSICHLTNESDGHTTSLYGIGFGPFIITNKHLFRRNNGTLVVQSLHGGFKVKDTTTLQQHLVDGRDMIIIRMPKDFPPFPQKLKFREPQREERICLVTTNFQTKSMSSMVSDTSCTFPSGDGIFWKHWIQTKDGQCGSPLVSTRDGFIVGIHSASNFTNTNNYFTSVPKNFMELLTNQEAQQWVSGWRLNADSVLWGGHKVFMVKPEEPFQPVKEATQL [V64G] | – | 0.0901 | – | 0.0521 |
| MGESLFKNPRDYNPISSSICHLTNESDGHTTSLYGIGFGPFIITNKHLFRRNNGTLVVQSLHGVFKVKDTTTLQQHLVDGRDMIIIRMPKDFPPFPQKLKFREPQREERICLVTTNFQTKSMSSMVSDTSCTFPSGDGIFWKHWIQTKDGQCGSPLVSTRDGFIVGIHSASNFTNTNNYFTSVPKNFMELLTNQEAQQWVSGWRLNADSVLWGGHKVFMVKPEEPFQPVKEATQL [G8N] | 0.0305 | 0.0853 | – | 0.0713 |
